Test results from publication PMC3281992.
Results are given in words; binding and its absence hold for the method and conditions named. For some assays here: Binding seen in cells or lysates may run through a third protein. Some binding calls cover weakened binding; strength is not graded here. For some assays here: Sequences can lack the tags named with a protein. Each block holds one binder with its values, some of them ahead of it.

Chains of the proteins cited; added tags and fusions are not shown.
UniProt Q9CQJ4: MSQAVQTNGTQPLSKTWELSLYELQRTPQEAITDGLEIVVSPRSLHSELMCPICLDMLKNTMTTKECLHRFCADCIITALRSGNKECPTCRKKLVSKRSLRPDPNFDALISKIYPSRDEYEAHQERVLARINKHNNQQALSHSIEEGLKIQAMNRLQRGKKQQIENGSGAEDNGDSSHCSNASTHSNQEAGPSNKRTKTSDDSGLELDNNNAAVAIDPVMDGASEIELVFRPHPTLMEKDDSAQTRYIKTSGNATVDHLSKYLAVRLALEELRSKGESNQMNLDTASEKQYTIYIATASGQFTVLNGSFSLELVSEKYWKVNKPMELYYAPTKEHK

Legend:
[1] = target: T1, MEL-18 (mouse (endogenous in mESCs, FSPE fibroblasts)), P23798; assay: co-IP; endogenous proteins from FSPE mouse fibroblast nuclear extract; IP of RING1B and RYBP; with or without Benzonase or EtBr; western blot; conditions: remark: other sources report otherwise
T1 chain: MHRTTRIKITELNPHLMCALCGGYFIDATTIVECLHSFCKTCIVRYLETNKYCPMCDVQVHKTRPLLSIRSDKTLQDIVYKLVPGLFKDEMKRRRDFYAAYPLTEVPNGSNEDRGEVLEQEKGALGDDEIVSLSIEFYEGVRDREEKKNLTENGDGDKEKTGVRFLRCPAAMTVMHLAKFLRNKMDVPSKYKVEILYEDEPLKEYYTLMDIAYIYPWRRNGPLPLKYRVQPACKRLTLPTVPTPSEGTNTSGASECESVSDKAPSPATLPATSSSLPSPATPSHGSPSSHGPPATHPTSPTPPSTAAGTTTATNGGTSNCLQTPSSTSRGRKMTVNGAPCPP

[2] = target: T1, MEL-18 (mouse (endogenous in mESCs, …)); assay: co-IP; endogenous proteins from Eed4 WT and Eed4 cKO (doxycycline, Eed-depleted) mESC nuclear extracts; antibodies to RING1B, MEL-18, RYBP or CBX7 crosslinked to Protein A/G magnetic beads; with or without Benzonase or EtBr; washes in C-100* (100 mM KCl) at 4°C; western blot; conditions: remark: other sources report otherwise
[3] = target: T2, MEL-18-Flag (mouse), P23798; assay: SEC; MEL-18-Flag complexes purified from mESC nuclear extract by Flag affinity, run on Superose 6 PC 3.2/30 in C-100* buffer (100 mM KCl); fractions analysed by western blot; conditions: remark: other sources report otherwise
T2 chain: T1 chain

RYBP-Flag (mouse) = target: T3, RYBP-Flag (mouse) (UniProt Q8CCI5); assay: co-IP; Flag purification of MEL-18-Flag, RYBP-Flag or CBX7-Flag from PGK12.1 mESC nuclear extract, analysed by western blot
T3 sequence: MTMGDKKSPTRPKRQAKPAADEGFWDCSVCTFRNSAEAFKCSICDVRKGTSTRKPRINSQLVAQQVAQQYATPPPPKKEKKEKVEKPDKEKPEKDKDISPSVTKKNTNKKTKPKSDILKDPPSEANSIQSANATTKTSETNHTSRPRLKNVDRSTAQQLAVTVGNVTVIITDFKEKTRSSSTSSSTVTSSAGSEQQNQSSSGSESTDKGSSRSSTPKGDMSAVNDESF

[4] = target: RING1B (mouse (endogenous in mESCs, NSCs, FSPE fibroblasts)) (UniProt Q9CQJ4); assay: co-IP; endogenous proteins from Eed4 WT and Eed4 cKO (doxycycline, Eed-depleted) mESC nuclear extracts; antibodies to RING1B, MEL-18, RYBP or CBX7 crosslinked to Protein A/G magnetic beads; with or without Benzonase or EtBr; washes in C-100* (100 mM KCl) at 4°C; western blot
[5] = target: T4, RYBP (mouse (endogenous in mESCs, NSCs, FSPE fibroblasts)) (UniProt Q8CCI5); assay: as above
T4 sequence: T3 sequence

[6] = target: T4, RYBP (mouse (endogenous in mESCs, NSCs, FSPE fibroblasts)); assay: co-IP; endogenous proteins from FSPE mouse fibroblast nuclear extract; IP of RING1B and RYBP; with or without Benzonase or EtBr; western blot
CBX7-Flag (mouse) = CBX7-Flag (mouse) (UniProt Q8VDS3); assay: co-IP; Flag purification of MEL-18-Flag, RYBP-Flag or CBX7-Flag from PGK12.1 mESC nuclear extract, analysed by western blot
MEL-18-Flag (mouse) [7] = target: T5, MEL-18-Flag (mouse) (UniProt P23798); assay: as above
T5 sequence: T1 chain

[8] = target: CBX7 (mouse (endogenous in mESCs, NSCs, FSPE fibroblasts)) (UniProt Q8VDS3); assay: co-IP; endogenous proteins from Eed4 WT and Eed4 cKO (doxycycline, Eed-depleted) mESC nuclear extracts; antibodies to RING1B, MEL-18, RYBP or CBX7 crosslinked to Protein A/G magnetic beads; with or without Benzonase or EtBr; washes in C-100* (100 mM KCl) at 4°C; western blot
[9] = target: T6, MEL-18 (mouse (endogenous in mESCs, FSPE fibroblasts)) (UniProt P23798); assay: as above
T6 sequence: T1 chain

[10] = target: RING1B (mouse (endogenous in mESCs, NSCs, FSPE fibroblasts)) (UniProt Q9CQJ4); assay: co-IP; endogenous proteins from FSPE mouse fibroblast nuclear extract; IP of RING1B and RYBP; with or without Benzonase or EtBr; western blot
MEL-18-Flag (mouse) [11] = target: T5, MEL-18-Flag (mouse); assay: SEC; MEL-18-Flag complexes purified from mESC nuclear extract by Flag affinity, run on Superose 6 PC 3.2/30 in C-100* buffer (100 mM KCl); fractions analysed by western blot

binding [1]: binds
binding [2]: binds
binding [3]: binds
B1: CBX7, Q8VDS3 1-158 (protein)
chain: MELSAIGEQVFAVESIRKKRVRKGKVEYLVKWKGWPPKYSTWEPEEHILDPRLVMAYEEKEERDRASGYRKRGPKPRRLLLQESAAPDVVQTPGDWEPMEQAPEEEAEADLTNGPPPWTPTLPSSEVTVTDITANSVTVTFREAQAAEGFFRDRNEKL

binding (RYBP-Flag (mouse)): binds
binding [4]: binds
binding [5]: binds
binding [6]: binds
B2: MEL-18 (protein, UniProt P23798 1-342)
chain: T1 chain

binding (CBX7-Flag (mouse)): no binding
binding (MEL-18-Flag (mouse) [7]): binds
binding [8]: no binding
binding [4]: binds
binding [9]: binds
binding [10]: binds
binding (MEL-18-Flag (mouse) [11]): binds
B3: RYBP (protein, UniProt Q8CCI5 1-228)
chain: T3 sequence
